These results are taken from the supplement of paper PMC10369915.

This is one part of the list. Cut-off read from the data, not from the text of the source: active = 3.2 or more and inactive = the rest. The signal is at background level for most entries.

First the molecules themselves.
B1: CENPF_Y700_M701V (peptide)
chain: TQKLAYVELQQ
B2: CEFIP_Y1332_YF (peptide)
chain: ALAAPYVLFPG
B3: CFAP58_Y501_S496T (peptide)
chain: TDRNLYSKNLV
B4: CFAP410_Y68_R73P (peptide)
chain: RLSELYLRRNP
B5: CFI_Y421_H418L (peptide)
chain: IFLENYNAGTY
B6: CDKN2A_Y44_P48L (peptide)
chain: NAPNSYGRRLI
B7: CDKN2A_Y44_I49S (peptide)
chain: NAPNSYGRRPS
B8: CDKN2A_Y44_I49T (peptide)
chain: NAPNSYGRRPT
B9: CEFIP_Y1332_G1337S (peptide)
chain: ALAAPYVLYPS
B10: CFH_Y1008_V1007I (peptide)
chain: EKKDIYKAGEQ
B11: CDKL5_Y286_C291Y_YF (peptide)
chain: DPADRYLTEQF
B12: CEFIP_Y1332_G1337S_YF (peptide)
chain: ALAAPYVLFPS
B13: CEMIP2_Y1015_I1010V (peptide)
chain: VTRDEYPSNPM
B14: CDKL5_Y286_C291Y (peptide)
chain: DPADRYLTEQY
B15: CEP152_Y268 (peptide)
chain: ERQIRYLNHQL
B16: CDKL5_Y286_T288I (peptide)
chain: DPADRYLIEQC
B17: CDKL5_Y286 (peptide)
chain: DPADRYLTEQC
B18: CENPF_Y1920 (peptide)
chain: EHEALYLEADL
B19: CEP43_Y267_K271N (peptide)
chain: KPEKTYGLRNE
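Note: displayed peptides selected on beads carrying the immobilized SH2 domain, with library peptides lacking any tyrosine serving as negative controls.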

One test deals with SHP2 C-SH2 domain E139D. As to the kind of experiment: enrichment score (SH2-bound / input frequency) (ratio); bacterial display of known human phosphotyrosine sites (pTyr-Var adds point mutants) read by sequencing; higher = stronger binding; tyrosines were phosphorylated by kinases first. As to conditions: peptide library: pTyr-Var.
Regarding B1, the enrichment score was inactive: 1.08.
The same measure, in the same setting: then B2, with inactive: 0.848.
The same measure, in the same setting: as for B3, the figure is inactive: 0.583; as for B4, inactive: 0.239; as for B5, inactive: 1.16.
Still for that read-out and setting: as for B6, the figure is inactive: 0.427; as for B7, inactive: 0.295.
For B8, the enrichment score is inactive: 0.294.
The same measure, in the same setting: as for B9, the figure is inactive: 0.905.
The same measure, in the same setting: as for B10, the figure is inactive: 0.456; as for B11, inactive: 0.696.
For B12, the enrichment score was inactive: 1.05.
Regarding B13, the enrichment score is inactive: 0.633.
Take B14: the enrichment score is inactive: 0.682.
Regarding B15, the enrichment score is inactive: 0.804.
Still for that read-out and setting: as for B16, the figure is inactive: 0.623.
On the same count and under the same terms, then B17, with inactive: 0.575; and B18, with inactive: 0.764.
The same measure, in the same setting: as for B19, the figure is inactive: 0.67.

In another test the target is SHP2 C-SH2 domain wild-type. Described as above. To be noted: peptide library: pTyr-Var.
In the case of B1, the enrichment score was inactive: 1.32.
As to B2, the enrichment score is inactive: 0.757.
Still for that read-out and setting: as for B3, the figure is inactive: 0.625; as for B4, inactive: 0.174.
The same measure, in the same setting: then B5, with inactive: 1.09.
On to B6, for which the enrichment score is inactive: 0.34.
Same read-out and setting: then B7, with inactive: 0.254; and B8, with inactive: 0.178; and B9, with inactive: 0.923.
For the molecule B10, the enrichment score was inactive: 0.427.
Consider B11, for which the enrichment score was inactive: 0.765.
As for B12, the enrichment score was inactive: 1.13.
For B13, the enrichment score is inactive: 0.615.
Still for that read-out and setting: as for B14, the figure is inactive: 0.582; as for B15, inactive: 0.685.
As to B16, the enrichment score is inactive: 0.932.
The same measure, in the same setting: as for B17, the figure is inactive: 0.577.
The same measure, in the same setting: as for B18, the figure is inactive: 0.683; as for B19, inactive: 0.689.

A further test has as its target SHP2 N-SH2 domain L43F. Described as above. As to conditions: peptide library: pTyr-Var.
For the molecule B1, the enrichment score is active: 4.42.
For the molecule B2, the enrichment score was inactive: 0.945.
On the same count and under the same terms, then B3, with inactive: 0.521.
B4: the enrichment score was inactive: 0.176.
On the same count and under the same terms, then B5, with inactive: 1.22.
Still for that read-out and setting: then B6, with inactive: 0.341; and B7, with inactive: 0.406; and B8, with inactive: 0.191.
Same read-out and setting: then B9, with inactive: 0.865; and B10, with inactive: 0.434; and B11, with inactive: 0.725.
With B12, the enrichment score is inactive: 0.884.
Take B13: the enrichment score is inactive: 0.607.
Still for that read-out and setting: as for B14, the figure is inactive: 0.609.
On the same count and under the same terms, then B15, with inactive: 0.722; and B16, with inactive: 0.776.
The same measure, in the same setting: then B17, with inactive: 0.546; and B18, with inactive: 0.757; and B19, with inactive: 0.566.

A further test concerns the target SHP2 N-SH2 domain T42A. Described as above. To be noted: peptide library: pTyr-Var.
As for B1, the enrichment score is active: 8.39.
Still for that read-out and setting: then B2, with inactive: 0.798; and B3, with inactive: 0.57.
Turning to B4, the enrichment score is inactive: 0.178.
For the molecule B5, the enrichment score is inactive: 0.995.
For B6, the enrichment score was inactive: 0.366.
Same read-out and setting: then B7, with inactive: 0.233; and B8, with inactive: 0.239.
For the molecule B9, the enrichment score was inactive: 0.797.
Same read-out and setting: as for B10, the figure is inactive: 0.646.
Same read-out and setting: as for B11, the figure is inactive: 0.695; as for B12, inactive: 0.905.
B13: the enrichment score is inactive: 0.56.
The same measure, in the same setting: as for B14, the figure is inactive: 0.534; as for B15, inactive: 0.892.
For the molecule B16, the enrichment score is inactive: 0.603.
Still for that read-out and setting: then B17, with inactive: 0.466; and B18, with inactive: 0.838; and B19, with inactive: 0.487.

The next test deals with SHP2 N-SH2 domain T52S. The description is as above. To be noted: peptide library: pTyr-Var.
Consider B1, for which the enrichment score is active: 4.84.
On the same count and under the same terms, then B2, with inactive: 0.959; and B3, with inactive: 0.627.
Same read-out and setting: then B4, with inactive: 0.187.
On the same count and under the same terms, then B5, with inactive: 1.24.
As to B6, the enrichment score is inactive: 0.429.
On the same count and under the same terms, then B7, with inactive: 0.274; and B8, with inactive: 0.275.
Still for that read-out and setting: as for B9, the figure is inactive: 0.783; as for B10, inactive: 0.557; as for B11, inactive: 0.784.
On the same count and under the same terms, then B12, with inactive: 0.946; and B13, with inactive: 0.493.
As to B14, the enrichment score is inactive: 0.524.
Same read-out and setting: then B15, with inactive: 0.776; and B16, with inactive: 0.7.
On the same count and under the same terms, then B17, with inactive: 0.508; and B18, with inactive: 0.623; and B19, with inactive: 0.743.

The target in the next test is SHP2 N-SH2 domain wild-type. The test is described as above. To be noted: peptide library: pTyr-Var.
Turning to B1, the enrichment score was inactive: 1.96.
As for B2, the enrichment score was inactive: 0.853.
With B3, the enrichment score was inactive: 0.777.
Still for that read-out and setting: then B4, with inactive: 0.24; and B5, with inactive: 1.12.
On the same count and under the same terms, as for B6, the figure is inactive: 0.418; as for B7, inactive: 0.279.
Same read-out and setting: then B8, with inactive: 0.186; and B9, with inactive: 0.665.
Turning to B10, the enrichment score is inactive: 0.582.
Same read-out and setting: then B11, with inactive: 0.719; and B12, with inactive: 0.942.
As for B13, the enrichment score is inactive: 0.529.
In the case of B14, the enrichment score was inactive: 0.704.
Same read-out and setting: as for B15, the figure is inactive: 0.872.
Same read-out and setting: as for B16, the figure is inactive: 0.79; as for B17, inactive: 0.534; as for B18, inactive: 1.55.
As to B19, the enrichment score was inactive: 0.853.
